These are yes or no findings as the source states them, for the method shown. For part of these data: In cells and extracts the contact can be indirect. Some results given as binding are weak or reduced against the parent protein; the word gives no strength. For part of these data: Sequences can lack the tags named with a protein. One block for each molecule: values may come before it.
Assays:
[1] = target: T1, Akt1 kinase, endogenous (Drosophila melanogaster (endogenous in adult heads)) (UniProt Q8INB9); experiment: co-IP; endogenous proteins from 150 heads of cycG HR7 homozygous mutant animals; IP with rabbit anti-Akt1, detection with rat anti-Wdb; unrelated serum as mock control
T1 sequence: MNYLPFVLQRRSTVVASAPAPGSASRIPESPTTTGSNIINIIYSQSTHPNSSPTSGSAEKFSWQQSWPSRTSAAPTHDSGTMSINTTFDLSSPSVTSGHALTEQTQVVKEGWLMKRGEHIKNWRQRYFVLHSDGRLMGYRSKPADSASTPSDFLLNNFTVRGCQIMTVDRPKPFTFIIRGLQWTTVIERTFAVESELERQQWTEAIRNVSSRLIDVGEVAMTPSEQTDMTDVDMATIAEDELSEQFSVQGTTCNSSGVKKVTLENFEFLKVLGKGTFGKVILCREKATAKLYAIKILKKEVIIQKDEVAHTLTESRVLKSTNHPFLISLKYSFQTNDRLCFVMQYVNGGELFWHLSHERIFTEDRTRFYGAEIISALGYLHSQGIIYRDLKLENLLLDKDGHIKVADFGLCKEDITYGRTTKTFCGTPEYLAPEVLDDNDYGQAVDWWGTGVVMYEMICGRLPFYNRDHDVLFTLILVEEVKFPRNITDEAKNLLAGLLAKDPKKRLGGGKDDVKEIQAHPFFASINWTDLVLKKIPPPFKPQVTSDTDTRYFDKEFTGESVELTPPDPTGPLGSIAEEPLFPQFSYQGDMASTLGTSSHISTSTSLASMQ

Sequences of proteins named here, by UniProt entry; tags and fusion partners are left off.
UniProt Q9VB23: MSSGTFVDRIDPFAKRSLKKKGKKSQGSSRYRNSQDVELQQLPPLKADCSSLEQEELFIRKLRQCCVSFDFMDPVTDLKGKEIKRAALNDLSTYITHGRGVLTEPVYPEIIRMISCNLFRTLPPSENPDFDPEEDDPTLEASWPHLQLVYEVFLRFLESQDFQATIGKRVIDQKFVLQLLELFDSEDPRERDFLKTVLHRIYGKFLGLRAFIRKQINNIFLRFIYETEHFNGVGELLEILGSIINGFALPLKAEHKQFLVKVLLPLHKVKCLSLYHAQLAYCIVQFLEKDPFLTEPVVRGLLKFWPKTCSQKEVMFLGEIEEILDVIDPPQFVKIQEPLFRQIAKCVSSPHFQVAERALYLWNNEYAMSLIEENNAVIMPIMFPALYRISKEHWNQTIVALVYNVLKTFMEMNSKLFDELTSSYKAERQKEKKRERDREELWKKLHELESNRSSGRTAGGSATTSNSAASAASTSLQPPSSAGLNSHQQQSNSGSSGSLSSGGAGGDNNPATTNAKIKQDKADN

[2] = target: T2, Cyclin G, endogenous (Drosophila melanogaster (endogenous in embryos and heads)) (UniProt Q95TJ9); experiment: co-IP; endogenous proteins from about 500 embryos (0-24 h); IP with guinea pig anti-CycG or anti-Wdb antibodies, blots with rat antisera; preimmune serum as mock control
T2 sequence: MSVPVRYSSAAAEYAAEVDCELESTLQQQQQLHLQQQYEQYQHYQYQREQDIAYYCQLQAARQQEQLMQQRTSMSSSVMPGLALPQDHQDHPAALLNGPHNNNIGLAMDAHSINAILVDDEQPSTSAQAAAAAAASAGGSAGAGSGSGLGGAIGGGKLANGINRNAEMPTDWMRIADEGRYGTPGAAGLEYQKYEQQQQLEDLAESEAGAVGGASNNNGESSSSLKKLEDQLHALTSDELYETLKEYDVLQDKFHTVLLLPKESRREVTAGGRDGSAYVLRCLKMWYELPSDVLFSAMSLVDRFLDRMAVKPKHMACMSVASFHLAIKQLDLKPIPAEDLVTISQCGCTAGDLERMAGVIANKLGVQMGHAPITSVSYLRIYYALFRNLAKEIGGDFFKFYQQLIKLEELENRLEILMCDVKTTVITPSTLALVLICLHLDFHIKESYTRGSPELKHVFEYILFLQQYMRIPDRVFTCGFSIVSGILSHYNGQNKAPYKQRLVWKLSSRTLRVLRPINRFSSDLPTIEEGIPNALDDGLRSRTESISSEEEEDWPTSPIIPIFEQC

[3] = target: T1, Akt1 kinase, endogenous (Drosophila melanogaster (endogenous in adult heads)); experiment: condition: only head extracts of wild type animals (CycG present); co-IP; endogenous proteins from 150 heads of wild type animals; IP with rabbit anti-Akt1, detection with rat anti-Wdb; unrelated serum as mock control
[4] = target: Widerborst, full length, yeast two-hybrid fusion (Drosophila melanogaster) (UniProt Q9VB23); experiment: two-hybrid; Brent two-hybrid system in yeast EGY40; both orientations (CycG in pEG or pJG, full length Wdb in pEG or VP16); blue staining of colonies; empty vectors as negative controls
[5] = target: Widerborst, endogenous (Drosophila melanogaster (endogenous in embryos and heads)) (UniProt Q9VB23); experiment: co-IP; endogenous proteins from about 500 embryos (0-24 h); IP with guinea pig anti-CycG or anti-Wdb antibodies, blots with rat antisera; preimmune serum as mock control

B2: Cyclin G, endogenous (protein, UniProt Q95TJ9 1-566)
chain: T2 sequence
binding [5]: binds

B3: Cyclin G C-terminal region including the conserved Cyclin domains (AS 215-566), yeast two-hybrid fusion (domain or fragment, UniProt Q95TJ9 215-566)
chain: SNNNGESSSSLKKLEDQLHALTSDELYETLKEYDVLQDKFHTVLLLPKESRREVTAGGRDGSAYVLRCLKMWYELPSDVLFSAMSLVDRFLDRMAVKPKHMACMSVASFHLAIKQLDLKPIPAEDLVTISQCGCTAGDLERMAGVIANKLGVQMGHAPITSVSYLRIYYALFRNLAKEIGGDFFKFYQQLIKLEELENRLEILMCDVKTTVITPSTLALVLICLHLDFHIKESYTRGSPELKHVFEYILFLQQYMRIPDRVFTCGFSIVSGILSHYNGQNKAPYKQRLVWKLSSRTLRVLRPINRFSSDLPTIEEGIPNALDDGLRSRTESISSEEEEDWPTSPIIPIFEQC
binding [4]: binds

Further lines, results first:

binding [1]: binds | binding [2]: binds | binding [3]: no binding
Molecule: Widerborst, endogenous (from UniProt Q9VB23 1-524)

binding [4]: binds
B1: Cyclin G, full length protein (AS 1-566), yeast two-hybrid fusion (protein, UniProt Q95TJ9 1-566)
chain: T2 sequence
